From PubChem BioAssay AID651820 (National Center for Advancing Translational Sciences (NCATS), 2012)
Screen size: about 340,000 compounds; about 12,000 (3.5%) were called active. This list was built around the results that the source calls inconclusive (neither active nor inactive); the mix of calls is not that of the screen. Calls come from the whole dose curve; as a rule, active = well fitted inhibition curve with a large enough effect; inconclusive = small, poorly fitted or top-dose-only effect, or another doubt; inactive = no such curve, though single readings can be large or run the other way. No potency is given beside an inconclusive call; the fits are too rough.

Assay: qHTS Assay for Inhibitors of Hepatitis C Virus (HCV)
Conditions: Huh7.5.1 HCVcc-Cre (HCVcc is cell-culture hepatitis C virus) infection, luciferase reporter, 44 h; series mostly up to 41.8 µM
In short: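 Luciferase read-out (15 sec integration) after a 15 min room-temperature substrate step quantifies HCVcc-Cre infection. Cells, 1,000 per well, had compound added 4 h post-plating, then virus at ~0.5 moi, and were cultured 44 h.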
Potency is the fitted concentration of half-maximal effect; tags give direction and shape of the fitted curve.

| Structure (SMILES) | Potency |
| --- | --- |
| Cc1ccnc(NC(=O)CC(NC(=O)c2ccccc2Cl)c2ccccc2)c1 (stereo not drawn) | inconclusive [inhibitor, single point] |
| COc1cccc(CNC(=O)COC(=O)c2cc([N+](=O)[O-])ccc2N2CCCC2)c1 | inconclusive [inhibitor, partial curve] |
| O=C(c1cc(F)ccc1F)C1CCCN(C(=O)CCc2cnccn2)C1 (stereo not drawn) | inactive |
| COc1cccc(CN2CCNC(=O)C2CC(=O)NCCc2ccccn2)c1 (stereo not drawn) | inactive |
| CC1CCN(C(=O)C(=O)c2cn(CC(=O)N3CCCCCC3)c3ccccc23)CC1 | inactive |
| O=C(Nc1ccccc1)N1CCN(c2nc3ccccc3s2)CC1 | inconclusive [inhibitor, single point] |
| O=C(NC1C2CC3CC(C2)CC1C3)C1CCCCC1 (stereo not drawn) | inactive |
| O=C(Nc1ccc2c(c1)OCCO2)c1cccc(Cl)c1 | inactive |
| Cc1ccccc1CN1C[C@@H]2C[C@@H](c3cn[nH]c3-c3ccccc3)N3CCC[C@@]23C1=O | active: 12.6 µM |
| Cc1ccc(-c2ccc(OC(=O)c3ccc(=O)[nH]c3)c(C)c2)cc1 | inconclusive [inhibitor, single point] |
| O=C(COc1cccc(C(F)(F)F)c1)Nc1ccc(S(=O)(=O)N2CCCC2)cc1 | active: 11.2 µM |
| CCC(=O)Oc1ccc(C(=O)Nc2ccc3c(c2)C(=O)N(C2CCCCC2)C3=O)cc1 | inconclusive [inhibitor, full curve, poor fit] |
| CN=C1S/C(=C\c2cccc(Cl)c2Cl)C(=O)N1C | inactive |
| c1ccc(-c2cnnc3ccccc23)cc1 | active: 11.2 µM |
| C/C(CC(=O)Nc1ccc(N(C)C)cc1)=N\NC(=O)c1cnccn1 | inactive |
| CN=C(SCC(=O)c1cccc(Cl)c1)c1c(O)n(C)c(=O)n(C)c1=O | inconclusive [inhibitor, partial curve] |
| Cc1ccccc1NC(=O)Cc1nc(COC(=O)c2cc(Br)ccc2O)cs1 | inconclusive [inhibitor, single point] |
| CCn1c(=O)c(C(=O)NCCN2CCCCC2)c(O)c2ccccc21 | inconclusive [inhibitor, full curve, poor fit] |
| CCn1c(=O)c2cc(C(=O)N(C)c3ccccc3F)sc2c2ccccc21 | active: 1 µM |
| O=S1(=O)c2ccc(Br)cc2N2CCC[C@H]2CN1Cc1ccccc1 | inconclusive [inhibitor, full curve] |
| CN1Cc2c(N3CCOCC3)nc3sc(C(=O)c4ccccc4)c(N)c3c2CC1(C)C | inconclusive [inhibitor, partial curve] |
| O=C1NC(=O)N(Cc2ccco2)C(=O)/C1=C/c1cccn1CCOc1ccccc1Cl | inactive |
| COc1ccc(CC(=O)Nc2ccc(C#N)c(Cl)c2)cc1S(=O)(=O)N1CCOCC1 | inconclusive [inhibitor, partial curve, poor fit] |
| COCC1CCN(C(=O)c2cc(COc3cccc4cnccc34)on2)CC1 | active: 7.08 µM |
| CCN(C(=O)[C@@H]1CCCN1C(=O)c1cccs1)c1nc2cc(Cl)ccc2s1 | active: 10 µM |

| Structure (SMILES) | Potency |
| --- | --- |
| COc1cc(C)ccc1OCC(=O)Nc1ccc2c(c1)OCO2 | inconclusive [inhibitor, single point] |
| O=C1N/C(=C\c2ccccc2)c2ccccc21 | active: 7.08 µM |
| Cc1ccc(NC(=O)c2ccc(NCCCN3CCOCC3)c([N+](=O)[O-])c2)cc1Cl | active: 11.2 µM |
| C=CCOc1ccc(Br)cc1CNC(C)(C)C | inconclusive [inhibitor, single point] |
| CCCCn1c(N)c(N(C)C(=O)c2ccccc2Oc2ccccc2)c(=O)[nH]c1=O | inactive |
| COc1ccc(C(=O)C(=O)c2ccc(OCCO)cc2)cc1 | inconclusive [inhibitor, single point] |
| O=c1[nH]c(O)c(/C=C2/C=CC(c3cc(Cl)ccc3Cl)=N2)c(=O)[nH]1 | active: 31.6 µM |
| CS(=O)(=O)c1ccc(Cl)c(NC(=O)CN2CCN(C(=O)c3cccs3)CC2)c1 | inactive |
| COc1ccc(OC)c(NC2c3ncccc3C(=O)N2Cc2ccco2)c1 (stereo not drawn) | inactive |
| Cc1oc2cc3oc(=O)c(CCC(=O)NC4CC4)c(C)c3cc2c1C | inconclusive [inhibitor, single point] |
| COC(=O)C1=C(c2ccccc2)C[C@@H]2CC[C@H]1N2C(=O)N1CCCC1 | inactive |
| O=C(c1ccc(N2CCN(C(=O)c3cccc(F)c3)CC2)cc1)c1cccc(F)c1 | inconclusive [inhibitor, single point] |
| CCOC(=O)CCN(C(=O)Nc1ccccc1)C1CCCCC1 | inactive |
| COc1ccc(OC)c(NC(=O)COc2ccc3c(c2)CCC3)c1 | inconclusive [inhibitor, single point] |
| CC(=Nc1ccc(C)cc1C)c1sc2ccccc2c1O | inconclusive [inhibitor, single point] |
| CCC(C)Cn1cnc2c(SCc3ccccc3F)nc(N)nc21 (stereo not drawn) | inconclusive [inhibitor, partial curve] |
| O=C(CCS(=O)(=O)c1ccccc1)N(CCCN1CCOCC1)c1nc2c(F)cccc2s1 | inconclusive [inhibitor, single point] |
| Cn1nc(C(=O)NCCCN2CCCCC2)c2c1-c1ccccc1SC2 | inconclusive [inhibitor, full curve, poor fit] |
| Cc1cccc(C)c1NC(=O)CSc1nnc(-c2ccco2)c(-c2ccco2)n1 | inconclusive [inhibitor, single point] |
| CCOc1ccc(CN(C)C(=O)c2ccc3c(c2)NC(=O)C(C)S3)cc1OC (stereo not drawn) | active: 12.6 µM |
| COC(=O)c1sccc1NC(=O)Nc1ccc(F)cc1F | inactive |
| C=CCNC(=S)NCC=C | inactive |
| O=C(C1CCCN(C2CC(=O)N(c3ccc(Cl)cc3)C2=O)C1)N1CCCC1 (stereo not drawn) | inactive |
| Cc1noc(C)c1C(=O)NNc1ccc(C(C)C)cc1 | inactive |
| O=C(Nc1nc2ccccc2s1)c1cc(-c2ccco2)nc2ccccc12 | inconclusive [inhibitor, single point] |

| Structure (SMILES) | Potency |
| --- | --- |
| CCC(c1nnnn1Cc1ccc(OC)cc1)N(CCCO)Cc1cc2cc3c(cc2[nH]c1=O)OCO3 (stereo not drawn) | inactive |
| COc1ccccc1NC(=O)NC1(C(=O)NCC2CCCO2)CCCCC1 (stereo not drawn) | inactive |
| COC(=O)C(C)N1C(=O)S/C(=C\c2cc(C)n(-c3ccccn3)c2C)C1=O (stereo not drawn) | inconclusive [inhibitor, full curve, poor fit] |
| Cc1cc2c(cc1C)N(Cc1ccc(Cl)cc1)C1=NCCCN12 | inconclusive [inhibitor, single point] |
| Cc1cc(C)cc(NC(=O)C(=O)NCC2CCCO2)c1 (stereo not drawn) | inactive |
| COc1cccc(NC(=O)c2nnn(Cc3ccc(Br)cc3F)c2N)c1 | inconclusive [inhibitor, single point] |
| CC(C)c1ccccc1-n1c(SCC(=O)N2CCN(c3ccccc3)CC2)nnc1-c1cccnc1 | inactive |
| COC(=O)c1ccc(NC(=O)CN2CCN(c3ccccc3C)CC2)cc1 | inconclusive [inhibitor, full curve, poor fit] |
| CCOC(=O)c1c(NC(=O)c2nc3n(n2)C(C(F)F)CC(C)N3)sc2c1CCCC2 (stereo not drawn) | inconclusive [inhibitor, full curve] |
| C=CCN(CC=C)c1nc2ccccc2nc1C(C#N)C(=O)OC(C)C (stereo not drawn) | inconclusive [inhibitor, single point] |
| CN(C(=O)c1cnc(N2CCN(c3ncccn3)CC2)c2ccccc12)c1ccc(Cl)cc1 | inconclusive [inhibitor, single point] |
| [O-]/C(=C(\C(=S)Nc1ccc(SC(F)F)cc1)[n+]1ccccc1)c1cc(Cl)ccc1Cl | inconclusive [inhibitor, partial curve, poor fit] |
| COc1ccc(Oc2nc(SC)nc3ccsc23)cc1 | inconclusive [inhibitor, single point] |
| CCCCNC(=O)C1CC(=O)N(CCC(C)C)C1 (stereo not drawn) | inactive |
| COc1cccc(NC(=O)c2ccc(N3C(=O)C4CC=C(C)CC4C3=O)cc2)c1 (stereo not drawn) | inconclusive [inhibitor, partial curve] |
| CSc1cccc(NC(=O)OC2CCCCCCCCCCC2)c1 | inactive |
| Cc1ccc(C(=O)OCC(=O)c2c[nH]c3ccccc23)cc1NC(=O)c1ccco1 | inconclusive [inhibitor, partial curve] |
| CC1CC(C)CN(CCCNC(=O)Cc2c(C(=O)O)n(C)c3ccccc23)C1 (stereo not drawn) | inconclusive [inhibitor, single point] |
| CCCn1c(N)c(C(=O)CSc2ncnc3sccc23)c(=O)n(C)c1=O | inconclusive [inhibitor, full curve, poor fit] |
| CCc1ccc2nc3n[nH]c(N)c3cc2c1 | inconclusive [inhibitor, single point] |
| COc1ccc(C(=O)CCC(C)(C)[N+](=O)[O-])cc1OC | inconclusive [inhibitor, single point] |
| O=C(CS(=O)c1ccc(C(F)(F)F)cc1[N+](=O)[O-])Oc1ccccc1 (stereo not drawn) | inconclusive [inhibitor, single point] |
| CCn1c(SCC(=O)N2c3ccccc3Sc3ccccc32)nnc1-c1ccco1 | inconclusive [inhibitor, partial curve] |
